In a collection of fitness landscapes (doi:10.1038/s41467-024-54723-y):
The full ranking holds about 18,000 sequences; the median of “TetR repression strength (sort-seq, GFP reporter)” is about 0.23, and the highest 2% start at about 0.68. The list shows a part of the results.

Each sequence was assayed against TetR (class B, Tn10) (UniProt P04483) (assay: TetR repression strength (sort-seq, GFP reporter) (relative to tetO2 = 1); higher = stronger repression). Details: E. coli.
Summary of the method: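 In LB with 50 µg/mL chloramphenicol, E. coli SIG10-MAX holding a low-copy library with eight randomized operator positions between a constitutive promoter and sfGFP, plus constitutive TetR, grew for 5 h at 37 °C. FACS then sorted 10^6 cells into 13 fluorescence bins for Illumina sequencing of each bin. Repression strength equals the top bin index plus one less the read-weighted mean bin, normalized to the unaltered operator. Values from three independent transformations were averaged when reads were ≥30 in every replicate and the CV was ≤0.5.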

Chain of UniProt P04483 (P04483 whole entry): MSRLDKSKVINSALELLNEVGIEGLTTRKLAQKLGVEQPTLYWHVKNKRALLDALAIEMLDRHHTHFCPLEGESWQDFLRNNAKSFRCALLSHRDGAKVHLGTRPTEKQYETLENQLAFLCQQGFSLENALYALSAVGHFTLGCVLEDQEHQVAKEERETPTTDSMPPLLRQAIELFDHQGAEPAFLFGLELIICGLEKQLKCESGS

Sequence	TetR repression strength
TCCCCGTTAGTAAAGGAGA	0.256
TCCCGACAAGTTGGTGAGA	0.0502
TCCCAAACAGTTGCGGAGA	0.456
TCCCTTGGAGTGAGAGAGA	0.146
TCCCTGCTAGTGATAGAGA	0.638
TCCCGTGGAGTGCCGGAGA	0.408
TCCCTGCTAGTTTCGGAGA	0.136
TCCCCGGGAGTGTCGGAGA	0.239
TCCCTTGTAGTGTGGGAGA	0.314
TCCCATTGAGTAAGAGAGA	0.106
TCCCGCGAAGTTGCTGAGA	1.1
TCCCCATTAGTCGCTGAGA	0.638
TCCCTTGTAGTGCTTGAGA	0.225
TCCCTCGGAGTTTCCGAGA	0.202
TCCCTATCAGTCGCCGAGA	0.455
TCCCCGCAAGTGTTCGAGA	0.285
TCCCGGTTAGTCATAGAGA	0.546
TCCCTAGAAGTACCGGAGA	0.461
TCCCAAGAAGTGGCAGAGA	0.317
TCCCTCGCAGTAAGGGAGA	0.229
TCCCACCGAGTGGGGGAGA	0.186
TCCCAAACAGTGAGGGAGA	0.344
TCCCTAGGAGTGTAGGAGA	0.14
TCCCATTAAGTGACGGAGA	0.116
TCCCATGCAGTGCACGAGA	0.17
TCCCGGCGAGTGGCTGAGA	0.16

Sequence	TetR repression strength
TCCCGGCCAGTTAGTGAGA	0.436
TCCCTTTTAGTAGGGGAGA	0.322
TCCCTGTAAGTGAGCGAGA	0.265
TCCCCATAAGTAGCTGAGA	0.228
TCCCCAATAGTAAGGGAGA	0.521
TCCCCGAGAGTTCTTGAGA	0.291
TCCCGTGTAGTCGTAGAGA	0.217
TCCCCCGGAGTCCCTGAGA	0.471
TCCCTCCCAGTCGACGAGA	0.24
TCCCACCGAGTTCTCGAGA	0.27
TCCCGAGCAGTAGGGGAGA	0.155
TCCCTGTGAGTCACAGAGA	0.205
TCCCGGTGAGTGCAGGAGA	0.258
TCCCCGGGAGTTCTAGAGA	0.405
TCCCGCGAAGTTCGTGAGA	0
TCCCGTGGAGTGAGCGAGA	0.183
TCCCTGGGAGTCAGGGAGA	0.158
TCCCGTAAAGTTGGGGAGA	0.173
TCCCTTTTAGTTGCGGAGA	0.539
TCCCCCAAAGTGGGCGAGA	0.104
TCCCGAACAGTCTCTGAGA	0.104
TCCCTCTGAGTGGTGGAGA	0.25
TCCCTAAAAGTTTGAGAGA	0.334
TCCCGAATAGTAGGCGAGA	0.304
TCCCCGCGAGTAGGAGAGA	0.405
TCCCGGCAAGTATCGGAGA	0.179

Sequence	TetR repression strength
TCCCAAGGAGTCCACGAGA	0.201
TCCCGCAGAGTTACTGAGA	0.263
TCCCTGGTAGTCGGTGAGA	0.0854
TCCCGCTTAGTTTCCGAGA	0.334
TCCCTGCAAGTGAACGAGA	0.378
TCCCGATGAGTCGGCGAGA	0.28
TCCCCGAAAGTATAGGAGA	0.11
TCCCTCTTAGTTGGGGAGA	0.241
TCCCTGGCAGTTTGAGAGA	0.177
TCCCTTACAGTAGCGGAGA	0.0543
TCCCAATAAGTACTGGAGA	0.0595
TCCCAGATAGTGAGTGAGA	0.181
TCCCGCAAAGTTAATGAGA	0.335
TCCCTCACAGTAGGAGAGA	0.28
TCCCAAAAAGTCATCGAGA	0.189
TCCCCAGGAGTGGGAGAGA	0.241
TCCCGTTAAGTTCGGGAGA	0.0307
TCCCGCACAGTTGCGGAGA	0.173
TCCCGGGGAGTGCGTGAGA	0.214
TCCCTCGCAGTGACGGAGA	0.418
TCCCGATCAGTAGGTGAGA	0.292
TCCCGGTAAGTCGCTGAGA	0.311
TCCCTTGAAGTCGCCGAGA	0.252
TCCCTGTGAGTCCACGAGA	0.622
TCCCTATGAGTAGTGGAGA	0.707
TCCCCGGAAGTGCTGGAGA	0.349

Sequence	TetR repression strength
TCCCGGCAAGTTTGCGAGA	0.0126
TCCCATGAAGTGAAGGAGA	0.072
TCCCGGTAAGTAGATGAGA	0.243
TCCCTCGCAGTAGGGGAGA	0.22
TCCCGCACAGTAGGCGAGA	0.112
TCCCCTTAAGTCGGTGAGA	0.267
TCCCTTGGAGTTAGTGAGA	0.142
TCCCGGTAAGTGATTGAGA	0.133
TCCCTGAGAGTCCGAGAGA	0.416
TCCCGTAGAGTGATAGAGA	0.501
TCCCGAGTAGTATCAGAGA	0.302
TCCCAAGTAGTGAGGGAGA	0.152
TCCCTTGTAGTGGTCGAGA	0.265
TCCCCGTGAGTCGGTGAGA	0.261
TCCCGTGGAGTCCGAGAGA	0.39
TCCCCTTGAGTGAGAGAGA	0.191
TCCCGTTGAGTCGAAGAGA	0.233
TCCCGACGAGTGGGGGAGA	0.209
TCCCCTTCAGTTACTGAGA	0.28
TCCCACCCAGTGGTAGAGA	0.357
TCCCTGCGAGTGGAGGAGA	1.08
TCCCAAGGAGTCGGCGAGA	0.743
TCCCGGATAGTTGGTGAGA	0.0558
TCCCTGGTAGTTGGCGAGA	0.0874
TCCCGATTAGTACGTGAGA	0.552
TCCCCTATAGTGATGGAGA	0.189

Sequence	TetR repression strength
TCCCCTATAGTAAGAGAGA	0.143
TCCCCGACAGTGCAGGAGA	0.299
TCCCAGTTAGTTCGGGAGA	0.0688
TCCCCCTGAGTAGGGGAGA	0.307
TCCCGATTAGTGTGTGAGA	0.0284
TCCCTGTCAGTGAGTGAGA	0.562
TCCCGGACAGTGAGGGAGA	0.185
TCCCCTTCAGTCAAGGAGA	0.253
TCCCGTGCAGTATGCGAGA	0.202
TCCCAGTAAGTCGCCGAGA	0.199
TCCCTTAGAGTAGACGAGA	0.376
TCCCTTGGAGTGATTGAGA	0.256
TCCCGGTGAGTTTGGGAGA	0.277
TCCCGCGGAGTGTTTGAGA	0.31
TCCCAGTTAGTGAAGGAGA	0.145
TCCCTTGAAGTTACCGAGA	0.844
TCCCGGGGAGTAAAGGAGA	0.252
TCCCCGGAAGTCGTAGAGA	0.284
TCCCGGGTAGTATGGGAGA	0.254
TCCCACATAGTGCAGGAGA	0.141
TCCCCTGCAGTTCTGGAGA	0.0734
TCCCGGATAGTGCCTGAGA	0.216
TCCCTTAAAGTATCCGAGA	0.19
TCCCGGCTAGTGGGTGAGA	0.182
TCCCCGGCAGTAGGGGAGA	0.177
TCCCACGTAGTTTTCGAGA	0.415

Sequence	TetR repression strength
TCCCCCGAAGTGCTGGAGA	0.277
TCCCCTCAAGTGCTGGAGA	0.207
TCCCTGAAAGTGCTGGAGA	0.311
TCCCCAATAGTAGGGGAGA	0.245
TCCCACTCAGTCGAGGAGA	0.205
TCCCAACGAGTGGACGAGA	0.155
TCCCTGGCAGTATAGGAGA	0.266
TCCCCATCAGTCGGTGAGA	0.144
TCCCCCGCAGTCGGCGAGA	0.0843
TCCCGCGAAGTGTCGGAGA	0.283
TCCCGAACAGTGGACGAGA	0.383
TCCCGTCAAGTTCGCGAGA	0.256
TCCCGCAGAGTCCTAGAGA	0.295
TCCCATACAGTGTGGGAGA	0.337
TCCCTTGTAGTAAGTGAGA	0.152
TCCCGACGAGTGACAGAGA	0.584
TCCCGCGTAGTGCTGGAGA	0.155
TCCCCGTAAGTAGCAGAGA	0.244
TCCCACGGAGTCCTTGAGA	0.0212
TCCCTATTAGTTCCAGAGA	0.193
TCCCGTATAGTCGGCGAGA	0.0358
TCCCCGGTAGTTGGAGAGA	0.18
TCCCCCTGAGTGCGAGAGA	0.149
TCCCGGTAAGTGGCTGAGA	1.11
TCCCTGCAAGTGCAGGAGA	0.336
TCCCCAATAGTCTTAGAGA	0.407

Sequence	TetR repression strength
TCCCGGGTAGTCCACGAGA	0.335
TCCCGGTGAGTGTATGAGA	0.302
TCCCCAAAAGTGTGAGAGA	0.128
TCCCAGAGAGTGCATGAGA	0.159
TCCCGGCGAGTGTCAGAGA	0.495
TCCCGGAGAGTCGGTGAGA	0.163
TCCCACGCAGTTGTGGAGA	0.155
TCCCGTGGAGTAGACGAGA	0.099
TCCCCGTCAGTGGTCGAGA	0.184
TCCCGCTTAGTTAGGGAGA	1.02
TCCCAAGGAGTTAACGAGA	0.424
TCCCACGGAGTGGGCGAGA	0.248
TCCCGTAGAGTCTAGGAGA	0.267
TCCCGCCTAGTATTTGAGA	0.278
TCCCGCAGAGTGGGCGAGA	0.274
TCCCACCAAGTCGGCGAGA	0.113
TCCCCCCAAGTATTGGAGA	0.159
TCCCATTTAGTAACTGAGA	0.258
TCCCATTGAGTGGGTGAGA	0.104
TCCCATTAAGTCTAAGAGA	0.247
TCCCGGATAGTATGAGAGA	0.24
TCCCTATGAGTGTCAGAGA	0.238
TCCCTCTCAGTAATCGAGA	0.415
TCCCCCGAAGTGGTTGAGA	0.198
TCCCGACGAGTGACCGAGA	0.514
TCCCTCGCAGTACGAGAGA	0.265

Sequence	TetR repression strength
TCCCGCTTAGTAACTGAGA	0.215
TCCCAAGCAGTCTGGGAGA	0.173
TCCCCTGGAGTTCGTGAGA	0.234
TCCCGCTGAGTAAGTGAGA	0.363
TCCCTAGGAGTTAGGGAGA	0.979
TCCCCGCGAGTGGGGGAGA	0.221
TCCCCGGAAGTGTTTGAGA	0.13
TCCCTTGTAGTTGATGAGA	0.15
TCCCTTAGAGTACACGAGA	0.274
TCCCGAGGAGTGAGTGAGA	0.238
TCCCCGTCAGTGAGCGAGA	0.0806
TCCCAAAGAGTGTAGGAGA	0.241
TCCCGATAAGTGGCTGAGA	0.523
TCCCCGACAGTACAAGAGA	0.275
TCCCCGTTAGTGGTCGAGA	0.0434
TCCCTTCGAGTGGTGGAGA	0.263
TCCCAGAAAGTGATAGAGA	0.438
TCCCGATCAGTAGAAGAGA	0.289
TCCCGTTAAGTGATGGAGA	0.305
TCCCCGGAAGTGTGGGAGA	0.451
TCCCCAATAGTGTTCGAGA	0.397
TCCCCTCCAGTTATTGAGA	0.477
